# Article PMC4336329 (PLoS ONE, 2015)
# Screen size: about 310,000 compounds; about 14,000 (4.5%) showed an effect of 50% or more. Effects have a minus sign here. Some of the results follow.
# Molecular target: human ether-à-go-go-related gene (hERG) potassium channel (human, UniProt Q12809)
# Test: primary screen, population patch clamp on CHO cells stably expressing hERG
# 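Further: peak tail current of the secondary pulse compared with the same well before compound.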
# Sequence of human ether-à-go-go-related gene (hERG) potassium channel (Q12809 whole entry, looked up): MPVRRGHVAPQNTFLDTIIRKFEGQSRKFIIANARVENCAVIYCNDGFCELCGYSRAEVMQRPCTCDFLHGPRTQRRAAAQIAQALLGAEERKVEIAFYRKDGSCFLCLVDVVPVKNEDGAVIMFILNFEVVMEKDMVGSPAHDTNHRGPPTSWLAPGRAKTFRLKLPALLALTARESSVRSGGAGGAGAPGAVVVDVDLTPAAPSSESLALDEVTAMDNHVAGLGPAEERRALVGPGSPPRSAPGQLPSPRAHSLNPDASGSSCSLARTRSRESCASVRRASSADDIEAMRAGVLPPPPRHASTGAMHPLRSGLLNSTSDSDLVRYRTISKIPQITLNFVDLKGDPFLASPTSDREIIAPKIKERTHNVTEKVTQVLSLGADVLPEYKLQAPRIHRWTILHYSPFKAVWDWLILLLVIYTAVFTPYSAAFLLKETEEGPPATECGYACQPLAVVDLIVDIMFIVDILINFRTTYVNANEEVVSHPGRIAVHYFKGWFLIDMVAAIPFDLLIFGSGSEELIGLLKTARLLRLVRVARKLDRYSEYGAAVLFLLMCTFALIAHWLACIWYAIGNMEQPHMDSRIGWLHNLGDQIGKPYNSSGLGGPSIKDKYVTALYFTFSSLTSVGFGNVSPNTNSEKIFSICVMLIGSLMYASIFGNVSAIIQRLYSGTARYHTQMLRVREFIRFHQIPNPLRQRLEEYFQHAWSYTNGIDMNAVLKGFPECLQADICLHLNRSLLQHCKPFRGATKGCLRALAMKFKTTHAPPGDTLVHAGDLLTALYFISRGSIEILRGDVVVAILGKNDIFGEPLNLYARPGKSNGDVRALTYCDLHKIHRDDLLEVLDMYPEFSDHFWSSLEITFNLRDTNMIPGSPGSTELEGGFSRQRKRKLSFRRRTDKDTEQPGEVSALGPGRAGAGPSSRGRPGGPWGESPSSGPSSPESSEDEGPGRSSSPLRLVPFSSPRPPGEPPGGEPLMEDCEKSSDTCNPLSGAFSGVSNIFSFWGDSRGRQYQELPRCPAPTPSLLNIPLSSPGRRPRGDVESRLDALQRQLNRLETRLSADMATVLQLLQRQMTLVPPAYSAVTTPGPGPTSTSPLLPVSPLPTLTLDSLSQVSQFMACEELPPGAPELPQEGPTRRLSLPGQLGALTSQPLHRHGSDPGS
row,Compound,"hERG current change (%, negative = inhibition) at 10uM [%]"
1,Cc1ccc(-c2cc(C(=O)N/N=C/C=C/c3ccco3)c3ccccc3n2)cc1C,9.75
2,CCOc1ccc(/C=C/C(=O)Nc2ccc(N3CCOCC3)cc2)cc1,6.52
3,CC(O)CNCCNCc1cccs1.Cl (centres unmarked),20.3
4,CSc1ncc(Cl)c(C(=O)Nc2ccccc2Br)n1,16.6
5,CCn1c(SCC(=O)Nc2nc(C)c(C)s2)nnc1-c1ccco1,-68.8
6,CC(C)(C)NC(=O)NC(=O)COC(=O)CNS(=O)(=O)/C=C/c1ccccc1,10.2
7,O=C(O)C1CSCN1S(=O)(=O)c1cccc2nsnc12 (centres unmarked),11.3
8,COc1ccc(S(=O)(=O)Nc2cc3c(cc2C(C)=O)OCO3)cc1,7.01
9,CC(C)CN(CC(C)C)C(=O)CC(=O)NC(=O)c1ccc(Cl)cc1,-21.2
10,O=C(Nc1ccccc1)Nc1ccccc1C(=O)NCCCN1CCOCC1,19.3
11,COc1cc(SC)ccc1C(=O)Nc1cccc(S(=O)(=O)NC2=NCCCCC2)c1,4.08
12,CC1CCc2sc(C(=O)OCC(=O)NCc3ccc(F)cc3)cc2C1 (centres unmarked),4.79
13,Cn1c(=O)c2cc(S(=O)(=O)NCCC(=O)NCC3CCCO3)ccc2n(C)c1=O (centres unmarked),4.49
14,CCN(CC(=O)NCCCN1CCOCC1)S(=O)(=O)c1cc(Cl)ccc1Cl,6.16
15,COc1ccc(-c2ccc(SCC(=O)NC3CCCCC3)nn2)cc1,7.3
16,CN(C)NC(=O)C12CCC(C)(C(=O)O1)C2(C)C (centres unmarked),66.3
17,O=C(COC(=O)/C=C/c1ccc(S(=O)(=O)N2CCOCC2)cc1)NCc1ccc2c(c1)OCO2,7.21
18,CCOC(=O)c1c(NC(=O)CSc2nnc(CNC(=O)c3ccco3)n2C)sc2c1CCC2,-50.1
19,O=c1c2ccccc2nc(CSc2ncnc3nc[nH]c23)n1-c1ccc(Cl)c(Cl)c1,5.27
20,COC(=O)c1sccc1NC(=O)Nc1ccc(C)cc1C,10.4
21,Fc1cccc(CO/N=C/c2c(-c3ccccc3)nc3ccc(Cl)cn23)c1,9.63
22,CCCCN1C[C@H](C)[C@@H](CC(=O)NCc2ccccc2)C1=O,-10.5

row,Compound,"hERG current change (%, negative = inhibition) at 10uM [%]"
1,CCCCCn1c(=O)c(C(=O)c2ccccc2)nc2ccccc21,-77.6
2,Cc1ccc(NC(=O)c2cncc(Br)c2)nc1,-12.2
3,NC(=O)c1c(NC(=O)COC(=O)CSc2nnc(-c3ccc(Cl)cc3)o2)sc2c1CCC2,-1.29
4,CC(C)NCCOCCOc1ccccc1F.O=C(O)C(=O)O,-0.805
5,CCOC(=O)[C@@H]1[C@H]2COc3cc(OC)ccc3[C@@H]2N2C(=O)N(c3cccc(F)c3)C(=O)[C@]12C,-3.14
6,COc1cccc(N=c2oc3cc(O)ccc3cc2C(=O)NCC2CCCO2)c1 (centres unmarked),23.4
7,CC(C)c1ccc(NC(=O)CCC(=O)NCc2ccco2)cc1,4.11
8,CC(NC(=O)C1CCCN(C(=O)c2ccc(Cl)cc2)C1)c1cccc(C(F)(F)F)c1 (centres unmarked),-51.2
9,Cc1cc(C(=O)NCc2ccccc2Br)no1,-1.04
10,O=C(O)C(=O)O.O=C(c1cccnc1)N1CCN(CCCc2ccccc2)CC1,-19.9
11,Cc1ccccc1C(=O)N1CCC(C(=O)Nc2ccc(S(=O)(=O)N3CCCCC3)cc2)CC1,-26.1
12,O=C(Nc1ncc(Cc2ccccc2Cl)s1)C1=NCCN1,13.3
13,Cc1ccc2cccc(OCc3ccccc3)c2n1,-6
14,CCC(C)NC(=O)Cn1c(=O)n(CCCCC(=O)NCc2ccco2)c(=O)c2ccccc21 (centres unmarked),-2.86
15,Cc1ccc(OCC(=O)Nc2ccc(S(=O)(=O)Nc3cc(C)nc(C)n3)cc2)cc1,0.245
16,CC(=O)c1nn(-c2cccc(Cl)c2)cc1C(=O)c1ccco1,-1.01
17,COc1ccc(-c2ccc(=O)n(CC(=O)NCc3ccco3)n2)cc1,-7.39
18,CC1CN(Cc2csc(-c3ccc(Cl)cc3)n2)CC(C)O1.O=C(O)C(=O)O (centres unmarked),10
19,O=C(O)CC(NCc1ccco1)C(=O)OCCc1ccccc1 (centres unmarked),16.9
20,O=C(Nc1ccc(N2CCOCC2)c(Cl)c1)c1ccccc1F,3.56
21,S=c1nc[nH]c2c1ncn2C1CCCO1 (centres unmarked),8.65
22,CCOc1ccc(S(=O)(=O)N2CCC(C(=O)N3CCCCCC3)CC2)cc1Cl,-35.4
